# In the supplement of paper PMC8728848:
# The list shows a part of the results.
# B1: AAL (Agrocybe aegerita), Q6WY08 (protein)
# chain: MQGVNIYNISAGTSVDLAAPVTTGDIVTFFSSALNLNAGAGNPNNTTLNLFAENGAYLLHIAFRLQENVIIFNSRQPDGPWLVEQRVSDVANQFAGIDGKAMVTVFDHGDKYQVVINEKTVIQYTKQISGLTLSLSYNATEETSIFSTVVEAVTYTGLALEHHHHHH
# Experiments:
# Assay in all cases: glycan array binding signal (z-score within array); higher = stronger binding
# Settings in all cases: glycan notation: IUPAC condensed, linker removed
# Neu5Ac(a2-3)Gal = target: Neu5Ac(a2-3)Gal
# In short: (§1)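 Negative Z-scores can be read as non-binding. The Z-score is calculated within each array and then averaged across arrays of one protein sequence at different concentrations or buffers and across linkers. Arrays, 3228 in all, were curated from the Consortium for Functional Glycomics database and kept only where the protein sequence was available.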
# [1] = target: Neu5Ac(a2-3)Gal(b1-3)GalNAc
# In short: as §1
# [2] = target: Neu5Ac(a2-3)Gal(b1-3)GalNAc(b1-3)Gal(a1-4)Gal(b1-4)Glc
# In short: as §1
# [3] = target: Neu5Ac(a2-3)Gal(b1-3)GalNAc(b1-4)[Neu5Ac(a2-3)]Gal(b1-4)Glc
# In short: as §1
# [4] = target: Neu5Ac(a2-3)Gal(b1-3)GalNAc(b1-4)[Neu5Ac(a2-8)Neu5Ac(a2-3)]Gal(b1-4)Glc
# In short: as §1
# [5] = target: Neu5Ac(a2-3)Gal(b1-3)GalNAc6S
# In short: as §1
# [6] = target: Neu5Ac(a2-3)Gal(b1-3)GlcNAc
# In short: as §1
# [7] = target: Neu5Ac(a2-3)Gal(b1-3)GlcNAc(b1-2)Man
# In short: as §1
# [8] = target: Neu5Ac(a2-3)Gal(b1-3)GlcNAc(b1-2)Man(a1-3)[GlcNAc(b1-4)][Neu5Ac(a2-3)Gal(b1-3)GlcNAc(b1-2)Man(a1-6)]Man(b1-4)GlcNAc(b1-4)GlcNAc
# In short: as §1
# [9] = target: Neu5Ac(a2-3)Gal(b1-3)GlcNAc(b1-2)Man(a1-3)[Neu5Ac(a2-3)Gal(b1-3)GlcNAc(b1-2)Man(a1-6)]Man(b1-4)GlcNAc(b1-4)GlcNAc
# In short: as §1
# [10] = target: Neu5Ac(a2-3)Gal(b1-3)GlcNAc(b1-3)Gal(b1-3)GlcNAc
# In short: as §1
# [11] = target: Neu5Ac(a2-3)Gal(b1-3)GlcNAc(b1-3)Gal(b1-4)GlcNAc
# In short: as §1
# [12] = target: Neu5Ac(a2-3)Gal(b1-3)GlcNAc(b1-3)GalNAc
# In short: as §1
# [13] = target: Neu5Ac(a2-3)Gal(b1-3)GlcNAc(b1-4)Gal(b1-4)Glc
# In short: as §1
# [14] = target: Neu5Ac(a2-3)Gal(b1-3)GlcNAc(b1-6)GalNAc
# In short: as §1
# [15] = target: Neu5Ac(a2-3)Gal(b1-3)GlcNAc6S
# In short: as §1
# [16] = target: Neu5Ac(a2-3)Gal(b1-3)[Fuc(a1-4)]GlcNAc
# In short: as §1
# [17] = target: Neu5Ac(a2-3)Gal(b1-3)[Fuc(a1-4)]GlcNAc(b1-3)Gal(b1-3)[Fuc(a1-4)]GlcNAc
# In short: as §1
# [18] = target: Neu5Ac(a2-3)Gal(b1-3)[Fuc(a1-4)]GlcNAc(b1-3)Gal(b1-4)[Fuc(a1-3)]GlcNAc
# In short: as §1
# [19] = target: Neu5Ac(a2-3)Gal(b1-3)[GlcNAc(b1-6)]GalNAc
# In short: as §1
# [20] = target: Neu5Ac(a2-3)Gal(b1-3)[Neu5Ac(a2-3)Gal(b1-4)]GlcNAc
# In short: as §1
# [21] = target: Neu5Ac(a2-3)Gal(b1-3)[Neu5Ac(a2-6)]GalNAc
# In short: as §1
# [22] = target: Neu5Ac(a2-3)Gal(b1-3)[Neu5Ac(a2-6)]GlcNAc(b1-3)[Fuc(a1-3)[Gal(b1-4)]GlcNAc(b1-6)]Gal(b1-4)Glc
# In short: as §1
# [23] = target: Neu5Ac(a2-3)Gal(b1-3)]Neu5Ac(a2-3)Gal(b1-4)]GlcNAc
# In short: as §1
# Neu5Ac(a2-3)Gal(b1-4)Glc = target: Neu5Ac(a2-3)Gal(b1-4)Glc
# In short: as §1
# [24] = target: Neu5Ac(a2-3)Gal(b1-4)GlcNAc
# In short: as §1
# [25] = target: Neu5Ac(a2-3)Gal(b1-4)GlcNAc(b1-2)Man
# In short: as §1
# [26] = target: Neu5Ac(a2-3)Gal(b1-4)GlcNAc(b1-2)Man(a1-3)[GlcNAc(b1-2)Man(b1-4)GlcNAc(b1-2)Man(a1-6)]Man(b1-4)GlcNAc(b1-4)GlcNAc
# In short: as §1
# [27] = target: Neu5Ac(a2-3)Gal(b1-4)GlcNAc(b1-2)Man(a1-3)[GlcNAc(b1-4)][Neu5Ac(a2-3)Gal(b1-4)GlcNAc(b1-2)Man(a1-6)]Man(b1-4)GlcNAc(b1-4)GlcNAc
# In short: as §1
# [28] = target: Neu5Ac(a2-3)Gal(b1-4)GlcNAc(b1-2)Man(a1-3)[Neu5Ac(a2-3)Gal(b1-4)GlcNAc(b1-2)Man(a1-6)]Man(b1-4)GlcNAc(b1-4)GlcNAc
# In short: as §1
# [29] = target: Neu5Ac(a2-3)Gal(b1-4)GlcNAc(b1-2)Man(a1-3)[Neu5Ac(a2-3)Gal(b1-4)GlcNAc(b1-2)Man(a1-6)]Man(b1-4)GlcNAc(b1-4)[Fuc(a1-6)]GlcNAc
# In short: as §1
# [30] = target: Neu5Ac(a2-3)Gal(b1-4)GlcNAc(b1-2)Man(a1-3)[Neu5Ac(a2-6)Gal(b1-4)GlcNAc(b1-2)Man(a1-6)]Man(b1-4)GlcNAc(b1-4)GlcNAc
# In short: as §1
# [31] = target: Neu5Ac(a2-3)Gal(b1-4)GlcNAc(b1-2)[Neu5Ac(a2-3)Gal(b1-4)GlcNAc(b1-4)]Man(a1-3)[GlcNAc(b1-4)][Neu5Ac(a2-3)Gal(b1-4)GlcNAc(b1-2)[Neu5Ac(a2-3)Gal(b1-4)GlcNAc(b1-6)]Man(a1-6)]Man(b1-4)GlcNAc(b1-4)GlcNAc
# In short: as §1
# [32] = target: Neu5Ac(a2-3)Gal(b1-4)GlcNAc(b1-2)[Neu5Ac(a2-3)Gal(b1-4)GlcNAc(b1-4)]Man(a1-3)[GlcNAc(b1-4)][Neu5Ac(a2-3)Gal(b1-4)GlcNAc(b1-4)Man(a1-6)]Man(b1-4)GlcNAc(b1-4)GlcNAc
# In short: as §1
# [33] = target: Neu5Ac(a2-3)Gal(b1-4)GlcNAc(b1-2)[Neu5Ac(a2-3)Gal(b1-4)GlcNAc(b1-6)]Man(a1-6)[Neu5Ac(a2-3)Gal(b1-4)GlcNAc(b1-2)Man(a1-3)]Man(b1-4)GlcNAc(b1-4)GlcNAc
# In short: as §1
# [34] = target: Neu5Ac(a2-3)Gal(b1-4)GlcNAc(b1-2)[Neu5Ac(a2-3)Gal(b1-4)GlcNAc(b1-6)]Man(a1-6)[Neu5Ac(a2-3)Gal(b1-4)GlcNAc(b1-2)Man(a1-3)][GlcNAc(b1-4)]Man(b1-4)GlcNAc(b1-4)GlcNAc
# In short: as §1
# [35] = target: Neu5Ac(a2-3)Gal(b1-4)GlcNAc(b1-3)Gal
# In short: as §1
# [36] = target: Neu5Ac(a2-3)Gal(b1-4)GlcNAc(b1-3)Gal(b1-3)GlcNAc
# In short: as §1
# [37] = target: Neu5Ac(a2-3)Gal(b1-4)GlcNAc(b1-3)Gal(b1-4)GlcNAc
# In short: as §1
# [38] = target: Neu5Ac(a2-3)Gal(b1-4)GlcNAc(b1-3)Gal(b1-4)GlcNAc(b1-2)Man(a1-3)[Neu5Ac(a2-3)Gal(b1-4)GlcNAc(b1-3)Gal(b1-4)GlcNAc(b1-2)Man(a1-6)]Man(b1-4)GlcNAc(b1-4)GlcNAc
# In short: as §1
# [39] = target: Neu5Ac(a2-3)Gal(b1-4)GlcNAc(b1-3)Gal(b1-4)GlcNAc(b1-3)Gal(b1-4)GlcNAc
# In short: as §1
# [40] = target: Neu5Ac(a2-3)Gal(b1-4)GlcNAc(b1-3)Gal(b1-4)GlcNAc(b1-3)Gal(b1-4)GlcNAc(b1-2)Man(a1-3)[Neu5Ac(a2-3)Gal(b1-4)GlcNAc(b1-3)Gal(b1-4)GlcNAc(b1-3)Gal(b1-4)GlcNAc(b1-2)Man(a1-6)]GalNAc
# In short: as §1
# [41] = target: Neu5Ac(a2-3)Gal(b1-4)GlcNAc(b1-3)Gal(b1-4)GlcNAc(b1-3)GalNAc
# In short: as §1
# [42] = target: Neu5Ac(a2-3)Gal(b1-4)GlcNAc(b1-3)Gal(b1-4)GlcNAc(b1-3)[Neu5Ac(a2-3)Gal(b1-4)GlcNAc(b1-3)Gal(b1-4)GlcNAc(b1-6)]GalNAc
# In short: as §1
# [43] = target: Neu5Ac(a2-3)Gal(b1-4)GlcNAc(b1-3)Gal(b1-4)GlcNAc(b1-6)[Gal(b1-3)]GalNAc
# In short: as §1
binder,measurement,setting,value
B1,glycan array binding signal (z-score),Neu5Ac(a2-3)Gal,-0.138
same,glycan array binding signal (z-score),[1],1.14
same,glycan array binding signal (z-score),[2],1.72
same,glycan array binding signal (z-score),[3],0.132
same,glycan array binding signal (z-score),[4],-0.106
same,glycan array binding signal (z-score),[5],0.751
same,glycan array binding signal (z-score),[6],-0.15
same,glycan array binding signal (z-score),[7],-0.118
same,glycan array binding signal (z-score),[8],-0.166
same,glycan array binding signal (z-score),[9],-0.144
same,glycan array binding signal (z-score),[10],-0.155
same,glycan array binding signal (z-score),[11],-0.157
same,glycan array binding signal (z-score),[12],-0.134
same,glycan array binding signal (z-score),[13],-0.129
same,glycan array binding signal (z-score),[14],-0.129
same,glycan array binding signal (z-score),[15],-0.147
same,glycan array binding signal (z-score),[16],-0.161
same,glycan array binding signal (z-score),[17],-0.152
same,glycan array binding signal (z-score),[18],-0.132
same,glycan array binding signal (z-score),[19],-0.033
same,glycan array binding signal (z-score),[20],-0.158
same,glycan array binding signal (z-score),[21],-0.123
same,glycan array binding signal (z-score),[22],-0.141
same,glycan array binding signal (z-score),[23],-0.153
same,glycan array binding signal (z-score),Neu5Ac(a2-3)Gal(b1-4)Glc,-0.125
same,glycan array binding signal (z-score),[24],-0.111
same,glycan array binding signal (z-score),[25],-0.141
same,glycan array binding signal (z-score),[26],5.88
same,glycan array binding signal (z-score),[27],1.77
same,glycan array binding signal (z-score),[28],1.8
same,glycan array binding signal (z-score),[29],3.85
same,glycan array binding signal (z-score),[30],0.196
same,glycan array binding signal (z-score),[31],2.98
same,glycan array binding signal (z-score),[32],5.72
same,glycan array binding signal (z-score),[33],-0.064
same,glycan array binding signal (z-score),[34],1.46
same,glycan array binding signal (z-score),[35],0.044
same,glycan array binding signal (z-score),[36],0.282
same,glycan array binding signal (z-score),[37],0.098
same,glycan array binding signal (z-score),[38],-0.117
same,glycan array binding signal (z-score),[39],0.953
same,glycan array binding signal (z-score),[40],-0.107
same,glycan array binding signal (z-score),[41],-0.106
same,glycan array binding signal (z-score),[42],-0.098
same,glycan array binding signal (z-score),[43],0.11
